Test results taken from the supplement of paper PMC11417369.
± gives the standard deviation of the averaged measurements. This is one part of the list.

test system: PfAP2-EXP AP2 domain (GST-tagged); assay: gcPBM binding intensity (ln(normalized median fluorescence intensity)); higher = stronger DNA binding
Outline: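 The highest Masliner-normalised natural-log median intensity across replicate spots of either probe orientation is reported as binding intensity. GST-tagged P. falciparum DNA-binding domains expressed in E. coli were applied for 1 h to an Agilent 4 × 180k array of primer-extended double-stranded 36-bp intergenic genomic probes plus negative controls, and bound protein was detected with Alexa488 anti-GST antibody and scanned at 488 nm.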

Sequence	gcPBM binding intensity (ln)
TGAATAAAAAAACCTAGTACTTAAATAAGTATATTT [XGTACX_site7690]	8.18 ± 0.36
TATATATTTATATTTACACACAGTTACTATGTAGAT [CACACA_site3292]	8.45 ± 0.36
ATTAAATGATCAAGGTGTACATTAACAAGAACTATA [XGTACX_site7022]	8.93 ± 0.45
TAAAAAAAATAGAAACGTACATAAAAAATAAATAAT [XGTACX_site5796]	8.98 ± 0.47
TATATATATACATACGTACACACAAATATTAAAATA [CACACA_site1950]	8.89 ± 0.014
TATATTTATATATGTTGTACTCTCCAATAATATTCC [XGTACX_site4438]	8.68 ± 0.29
TTTATTAATGGACACACACACACACCCAAAATAAAA [CACACA_site4294]	8.92 ± 0.57
TCATATAAAACATGCACACATATGTACTCTTATAAA [CACACA_site3748]	8.76 ± 0.27
GTACTTATTAAATGTGCATGTTGATATATAAATGTA [TGCATGCA_site902]	8.69 ± 0.26
TTTATATTTTAAAAAATAATATTATGTATTTTTAAA [TGCATGCA_negctrl_site507]	7.87 ± 0.39
TTTAATATATATATGTGTACATATAAATTATATATA [XGTACX_site8511]	8.2 ± 0.23
ATATAATAAACGTGTACACAATTAAATTATTATATA [CACACA_site5017]	8.7 ± 0.23
ATATACATAAAAATATGTACATATAAAATATATACA [XGTACX_site2394]	8.38 ± 0.25
TAGACTCCCAGACACACACACACACCCATATAATAT [CACACA_site593]	8.55 ± 0.57
TATTATTATTGTTGATGTACATTTAATATAATATAT [XGTACX_site4482]	8.49 ± 0.39
TTTTTTTTTTTTGGTGCATGCACATTTTGTTTTTTT [TGCATGCA_site570]	9.72 ± 0.11
TTATAATCTTTTGGTTCTATAGAATATCAAAAAATA [CACACA_negctrl_site1149]	8.39 ± 0.68
TTTTTAAAAAAATTGATTCTTTTTCTTTTTTTTCTT [XGTACX_negctrl_site127]	8.13 ± 0.49
TTTTTTGCTTGGGTGAGAAAAAATAAAATAAAGGAA [TGCATGCA_negctrl_site139]	8.8 ± 0.37

Sequence	gcPBM binding intensity (ln)
TATTATTGTCATTTTTTTTTTTTTTTTTTCTATTTC [XGTACX_negctrl_site114]	8.47 ± 0.61
AAAAAATAAAAGGAAAAAAAAAAAAAAAAAAAAAAT [CACACA_negctrl_site635]	8.09 ± 0.61
ATTTATACAAAGCTTCGTACATAATGTATTCTTTTT [XGTACX_site2166]	8.73 ± 0.36
TTTTAATTGTTTATTTGTACATATGTTTAATTATAT [XGTACX_site571]	8.86 ± 0.4
TTATTAAAAATGTATTGTACAAATTTATTAGTAAAT [XGTACX_site4799]	8.35 ± 0.18
AAAGTTACATTCGACACACACATAACAACTAAATAA [CACACA_site3419]	8.63 ± 0.57
TTTTACATATATATATGTACGAAAATGAAAAGGTCA [XGTACX_site5576]	9.05 ± 0.47
TATTATAATTTTATATGTACACATATATAAATATAT [XGTACX_site4054]	8.3 ± 0.28
TTTATTTATTAATACACACACACACCCCCACAAAAT [CACACA_site240]	10.1 ± 0.42
TACATAAACATTTATACACACATTAGATATACATAT [CACACA_site6329]	8.4 ± 0.46
CTAAATAAAGTTAACACACACATAATATTTATATGT [CACACA_site6368]	8.23 ± 0.27
TCAAAGAGTAGAAAGGTGCTTATGAACGAGATAATT	8.6 ± 0.26
TTTTTTAAAACTTCAAAAAGAGCACTTGAATTTTTT [GTGCAC_negctrl_site455]	8.07 ± 0.35
ACATATACATTTATATGTACTCATTTATCTTATGTA [XGTACX_site6594]	8.49 ± 0.25
AAATATTACATACACGCACACATTAATATATTTAAA [CACACA_site2603]	8.63 ± 0.35
AACTAAATTTATAATTGTACATTAAAATATGTATTA [XGTACX_site479]	8.28 ± 0.4
ACCTAATTTTTATATTGTACATAATATAATATATAT [XGTACX_site1715]	8.66 ± 0.3
ACCTACACAAGCATTAAACACACAAAAGGGATACTT [CACACA_site8273]	8.71 ± 0.71
ACAAGAACAGAACGTACACACACATATATATATATA [CACACA_site9143]	9.97 ± 0.39

Sequence	gcPBM binding intensity (ln)
CTCCACAAACAAATCGCACACCCAACCCAACATATA [CACACA_site2650]	9.22 ± 0.57
ATAGAACTGAATAAATCTATAAATAAATATATATAT [GTGCAC_negctrl_site604]	9.16 ± 0.23
TATTATAATGACTATAGTACATAATATTATTTATAT [XGTACX_site1977]	8.43 ± 0.47
TCATACCTACATAAAAAAAGGGAAACAAAATGTCAT [XGTACX_negctrl_site34]	8.57 ± 0.55
AATAAATATAAATACACACCCATATATATATATATA [CACACA_site5436]	10.2 ± 0.35
ACCAATAAATATTTGGTGCATACATATATATATATA	9.95 ± 0.26
TTAAAAAAAAAAAAAAGTACACACTTATAAAATATT [XGTACX_site1630]	8.4 ± 0.4
ATTTTTGTGACTAAGACATGCATAAGAGTAAAGAAA [TGCATGCA_site619]	9.14 ± 0.49
ACATATATTATATAACGTACATAACACTATTTCCTT [XGTACX_site6938]	8.87 ± 0.26
TTTTTTTTTTGTAATTGTACTTTTTTAATACTTCTA [XGTACX_site4195]	8.6 ± 0.33
TATATATATATATTCACACATAAATATATGCACCCA [CACACA_site4263]	9.96 ± 0.2
TATACATATATATACACACACATATATATATATATA [CACACA_site4]	10 ± 0.31
AGTATAGTTATAAATTGTACATATTATTTATTTTAT [XGTACX_site949]	8.44 ± 0.23
TAAGTCGCCAAAAGGTGTACACATAATGCATTATCA [XGTACX_site8852]	9.14 ± 0.37
ATGGGGAATAATGAATGTACACAAATAAAAAGTTGG [XGTACX_site4015]	9.1 ± 0.47
TAATATCATTTAGACACACACTCTTACAATCTGTAA [CACACA_site2590]	8.2 ± 0.54
AATCATTTATGGAAAGCATGCTAAATTAGAGTATAC [TGCATGCA_site172]	9.29 ± 0.5
ATCTAAACCTTTTGAGCACACATATATATATATATA [CACACA_site8526]	9.86 ± 0.7
TAAAAATAAAAATAACGTACATACATACTTATATAT [XGTACX_site3745]	8.11 ± 0.17
